{"source": "paper PMC12820563", "about": "“FoxP3 forms a head-to-head dimer in vivo and stabilizes its multimerization on adjacent microsatellites”", "note": "The list shows a part of the results.", "data": [{"target": "T1, MBP-FoxP1dN (Mus musculus, UniProt P58462 326-579)", "T1 sequence": "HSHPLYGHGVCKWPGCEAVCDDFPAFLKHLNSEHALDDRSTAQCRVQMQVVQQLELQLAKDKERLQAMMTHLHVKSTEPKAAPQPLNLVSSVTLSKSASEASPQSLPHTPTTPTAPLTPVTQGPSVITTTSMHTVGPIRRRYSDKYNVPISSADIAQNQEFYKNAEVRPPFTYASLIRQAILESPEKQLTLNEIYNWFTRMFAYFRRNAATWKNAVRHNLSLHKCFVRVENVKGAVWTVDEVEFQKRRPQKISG", "assay": "PD-seq (MBP pull-down with sequencing); 20 mM Tris-HCl pH 7.5, 100 mM NaCl, 1.5 mM MgCl2, 0.4 uM protein, 0.1 uM dsDNA library, 30 min, room temperature, amylose pull-down; high values mean tight binding", "conditions": "protein: recombinant; tags: His6-MBP; chain copies: 2; dsDNA, one strand shown", "how_it_was_run": "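Binding is given as reads-per-million enrichment, pull-down over input, with replicates pooled. The bait was an N-terminus-lacking mouse FoxP3 or FoxP1 fragment with a His6-MBP tag, expressed in E. coli and used at 0.4 µM with 0.1 µM Klenow-filled degenerate double-stranded DNA library for 30 min at room temperature in Tris pH 7.5 buffer with NaCl and MgCl2. Amylose resin pull-down with three washes was followed by proteinase K release, PCR barcoding and Illumina sequencing.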", "values": [{"sequence": "GATGATTGTTCTCCCAGCTGATGAATTTCATACATCGAGTAAACAAATTTTCCTAATCTTTCTGTTCAAGCGCCATCTAC", "binding signal": "1.04 RPM ratio (pull-down/input)"}, {"sequence": "GATGATTGTTCTCCCAGCTGATGAATTCATGTTCTCGAGTAAACAAATTTTCCTAATCTTTCTGTTCAAGCGCCATCTAC", "binding signal": "0.892 RPM ratio (pull-down/input)"}, {"sequence": "GATGATTGTTCTCCCAGCTGATGAATTCGGAAACTCGAGTAAACAAATTTTCCTAATCTTTCTGTTCAAGCGCCATCTAC", "binding signal": "0.786 RPM ratio (pull-down/input)"}, {"sequence": "GATGATTGTTCTCCCAGCTGATGAATTAGCCCGCTCGAGTAAACAAATTTTCCTAATCTTTCTGTTCAAGCGCCATCTAC", "binding signal": "0.752 RPM ratio (pull-down/input)"}, {"sequence": "GATGATTGTTCTCCCAGCTGATGAATTGATTCAATCGAGTAAACAAATTTTCCTAATCTTTCTGTTCAAGCGCCATCTAC", "binding signal": "1.12 RPM ratio (pull-down/input)"}, {"sequence": "GATGATTGTTCTCCCAGCTGATGAATTAAGGATTTCGAGTAAACAAATTTTCCTAATCTTTCTGTTCAAGCGCCATCTAC", "binding signal": "0.83 RPM ratio (pull-down/input)"}, {"sequence": "GATGATTGTTCTCCCAGCTGATGAATTTCTCCATTCGAGTAAACAAATTTTCCTAATCTTTCTGTTCAAGCGCCATCTAC", "binding signal": "0.976 RPM ratio (pull-down/input)"}, {"sequence": "GATGATTGTTCTCCCAGCTGATGAATTCCCTTGGTCGAGTAAACAAATTTTCCTAATCTTTCTGTTCAAGCGCCATCTAC", "binding signal": "0.752 RPM ratio (pull-down/input)"}, {"sequence": "GATGATTGTTCTCCCAGCTGATGAATTAGTTATATCGAGTAAACAAATTTTCCTAATCTTTCTGTTCAAGCGCCATCTAC", "binding signal": "1.07 RPM ratio (pull-down/input)"}, {"sequence": "GATGATTGTTCTCCCAGCTGATGAATTCGGGATCTCGAGTAAACAAATTTTCCTAATCTTTCTGTTCAAGCGCCATCTAC", "binding signal": "0.775 RPM ratio (pull-down/input)"}, {"sequence": "GATGATTGTTCTCCCAGCTGATGAATTCTATTAATCGAGTAAACAAATTTTCCTAATCTTTCTGTTCAAGCGCCATCTAC", "binding signal": "1.07 RPM ratio (pull-down/input)"}, {"sequence": "GATGATTGTTCTCCCAGCTGATGAATTGTGGCAATCGAGTAAACAAATTTTCCTAATCTTTCTGTTCAAGCGCCATCTAC", "binding signal": "1.38 RPM ratio (pull-down/input)"}, {"sequence": "GATGATTGTTCTCCCAGCTGATGAATTGCATCATTCGAGTAAACAAATTTTCCTAATCTTTCTGTTCAAGCGCCATCTAC", "binding signal": "1.84 RPM ratio (pull-down/input)"}, {"sequence": "GATGATTGTTCTCCCAGCTGATGAATTCTGACCCTCGAGTAAACAAATTTTCCTAATCTTTCTGTTCAAGCGCCATCTAC", "binding signal": "0.771 RPM ratio (pull-down/input)"}, {"sequence": "GATGATTGTTCTCCCAGCTGATGAATTGTCGTTATCGAGTAAACAAATTTTCCTAATCTTTCTGTTCAAGCGCCATCTAC", "binding signal": "1.3 RPM ratio (pull-down/input)"}, {"sequence": "GATGATTGTTCTCCCAGCTGATGAATTGGTCGCTTCGAGTAAACAAATTTTCCTAATCTTTCTGTTCAAGCGCCATCTAC", "binding signal": "0.933 RPM ratio (pull-down/input)"}, {"sequence": "GATGATTGTTCTCCCAGCTGATGAATTCCTGCGCTCGAGTAAACAAATTTTCCTAATCTTTCTGTTCAAGCGCCATCTAC", "binding signal": "0.847 RPM ratio (pull-down/input)"}, {"sequence": "GATGATTGTTCTCCCAGCTGATGAATTTCCTCTTTCGAGTAAACAAATTTTCCTAATCTTTCTGTTCAAGCGCCATCTAC", "binding signal": "0.943 RPM ratio (pull-down/input)"}, {"sequence": "GATGATTGTTCTCCCAGCTGATGAATTATACACCTCGAGTAAACAAATTTTCCTAATCTTTCTGTTCAAGCGCCATCTAC", "binding signal": "1.1 RPM ratio (pull-down/input)"}, {"sequence": "GATGATTGTTCTCCCAGCTGATGAATTATGTCATTCGAGTAAACAAATTTTCCTAATCTTTCTGTTCAAGCGCCATCTAC", "binding signal": "1.3 RPM ratio (pull-down/input)"}, {"sequence": "GATGATTGTTCTCCCAGCTGATGAATTACCTTCCTCGAGTAAACAAATTTTCCTAATCTTTCTGTTCAAGCGCCATCTAC", "binding signal": "0.933 RPM ratio (pull-down/input)"}, {"sequence": "GATGATTGTTCTCCCAGCTGATGAATTCTTAAACTCGAGTAAACAAATTTTCCTAATCTTTCTGTTCAAGCGCCATCTAC", "binding signal": "0.925 RPM ratio (pull-down/input)"}, {"sequence": "GATGATTGTTCTCCCAGCTGATGAATTCTCAGCCTCGAGTAAACAAATTTTCCTAATCTTTCTGTTCAAGCGCCATCTAC", "binding signal": "0.804 RPM ratio (pull-down/input)"}, {"sequence": "GATGATTGTTCTCCCAGCTGATGAATTTATGTGTTCGAGTAAACAAATTTTCCTAATCTTTCTGTTCAAGCGCCATCTAC", "binding signal": "1.65 RPM ratio (pull-down/input)"}, {"sequence": "GATGATTGTTCTCCCAGCTGATGAATTAGCCACGTCGAGTAAACAAATTTTCCTAATCTTTCTGTTCAAGCGCCATCTAC", "binding signal": "0.929 RPM ratio (pull-down/input)"}, {"sequence": "GATGATTGTTCTCCCAGCTGATGAATTAACCAGGTCGAGTAAACAAATTTTCCTAATCTTTCTGTTCAAGCGCCATCTAC", "binding signal": "0.843 RPM ratio (pull-down/input)"}, {"sequence": "GATGATTGTTCTCCCAGCTGATGAATTGAACCATTCGAGTAAACAAATTTTCCTAATCTTTCTGTTCAAGCGCCATCTAC", "binding signal": "0.893 RPM ratio (pull-down/input)"}, {"sequence": "GATGATTGTTCTCCCAGCTGATGAATTGCAGTATTCGAGTAAACAAATTTTCCTAATCTTTCTGTTCAAGCGCCATCTAC", "binding signal": "1.33 RPM ratio (pull-down/input)"}, {"sequence": "GATGATTGTTCTCCCAGCTGATGAATTTGTACGATCGAGTAAACAAATTTTCCTAATCTTTCTGTTCAAGCGCCATCTAC", "binding signal": "1.1 RPM ratio (pull-down/input)"}, {"sequence": "GATGATTGTTCTCCCAGCTGATGAATTAGAATCGTCGAGTAAACAAATTTTCCTAATCTTTCTGTTCAAGCGCCATCTAC", "binding signal": "0.932 RPM ratio (pull-down/input)"}, {"sequence": "GATGATTGTTCTCCCAGCTGATGAATTGTCCCTATCGAGTAAACAAATTTTCCTAATCTTTCTGTTCAAGCGCCATCTAC", "binding signal": "1.01 RPM ratio (pull-down/input)"}, {"sequence": "GATGATTGTTCTCCCAGCTGATGAATTAGCTGAGTCGAGTAAACAAATTTTCCTAATCTTTCTGTTCAAGCGCCATCTAC", "binding signal": "0.844 RPM ratio (pull-down/input)"}, {"sequence": "GATGATTGTTCTCCCAGCTGATGAATTCTGGGGTTCGAGTAAACAAATTTTCCTAATCTTTCTGTTCAAGCGCCATCTAC", "binding signal": "0.765 RPM ratio (pull-down/input)"}, {"sequence": "GATGATTGTTCTCCCAGCTGATGAATTGCGTCCTTCGAGTAAACAAATTTTCCTAATCTTTCTGTTCAAGCGCCATCTAC", "binding signal": "1.12 RPM ratio (pull-down/input)"}, {"sequence": "GATGATTGTTCTCCCAGCTGATGAATTGCTGAACTCGAGTAAACAAATTTTCCTAATCTTTCTGTTCAAGCGCCATCTAC", "binding signal": "0.955 RPM ratio (pull-down/input)"}, {"sequence": "GATGATTGTTCTCCCAGCTGATGAATTGAGATTATCGAGTAAACAAATTTTCCTAATCTTTCTGTTCAAGCGCCATCTAC", "binding signal": "0.982 RPM ratio (pull-down/input)"}, {"sequence": "GATGATTGTTCTCCCAGCTGATGAATTCTTGATGTCGAGTAAACAAATTTTCCTAATCTTTCTGTTCAAGCGCCATCTAC", "binding signal": "1.37 RPM ratio (pull-down/input)"}, {"sequence": "GATGATTGTTCTCCCAGCTGATGAATTGATCCTTTCGAGTAAACAAATTTTCCTAATCTTTCTGTTCAAGCGCCATCTAC", "binding signal": "0.82 RPM ratio (pull-down/input)"}, {"sequence": "GATGATTGTTCTCCCAGCTGATGAATTTATTTAATCGAGTAAACAAATTTTCCTAATCTTTCTGTTCAAGCGCCATCTAC", "binding signal": "1.4 RPM ratio (pull-down/input)"}, {"sequence": "GATGATTGTTCTCCCAGCTGATGAATTATCTGAGTCGAGTAAACAAATTTTCCTAATCTTTCTGTTCAAGCGCCATCTAC", "binding signal": "0.949 RPM ratio (pull-down/input)"}]}]}
